Source: PubChem BioAssay AID624417 (National Center for Advancing Translational Sciences (NCATS), 2012)
Where “and” joins values, the source holds several entries; their conditions need not be identical. Equal values may be shown once. Among all 410,000 compounds or so, about 6,400 (1.6%) were called active. Inconclusive results, whose numbers are uncertain, are shown with a selection of clear calls. Calls come from the whole dose curve; as a rule, active = well fitted inhibition curve with a large enough effect; inconclusive = small, poorly fitted or top-dose-only effect; inactive = no such curve, though single readings can be large or run the other way. Potencies beside an inconclusive call are fits to weak or partial responses and may not hold up.

Target: Glucagon-like peptide 1 receptor (Homo sapiens) (UniProt P43220)
Chain of UniProt P43220 (P43220 whole entry, looked up): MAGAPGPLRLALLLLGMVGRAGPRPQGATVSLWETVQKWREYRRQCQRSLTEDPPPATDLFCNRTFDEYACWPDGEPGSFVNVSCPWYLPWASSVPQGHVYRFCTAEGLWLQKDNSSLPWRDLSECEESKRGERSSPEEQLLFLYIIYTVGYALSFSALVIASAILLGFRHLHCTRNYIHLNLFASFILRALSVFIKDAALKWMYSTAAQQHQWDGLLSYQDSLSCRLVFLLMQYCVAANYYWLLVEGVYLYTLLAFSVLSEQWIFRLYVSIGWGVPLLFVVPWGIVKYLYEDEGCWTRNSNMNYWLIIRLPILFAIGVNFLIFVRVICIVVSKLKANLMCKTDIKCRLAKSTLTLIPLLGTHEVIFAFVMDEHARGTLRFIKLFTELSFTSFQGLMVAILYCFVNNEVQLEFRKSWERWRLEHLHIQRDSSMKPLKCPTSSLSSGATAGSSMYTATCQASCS
Assay: qHTS of GLP-1 Receptor Inverse Agonists (Inhibition Mode); note: nearly all actives have a fitted effect of over 55% in size
Details: HEK293 GLP-1R CRE-luciferase, luminescence, 24 h, GLP-1R form is constitutively active; series mostly up to 38.3 µM
Procedure, shortened: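 Cells are plated, allowed 12 hours at 37 deg C, then treated with compounds for 24 hr before luciferase detection reagent is added and luminescence is read after 12 min at room temperature. The HEK293 line carries constitutively active GLP-1R with a cAMP-responsive reporter.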
Potency is the fitted concentration of half-maximal effect; tags give direction and shape of the fitted curve.

Q: For `CCCNC(=S)N1CCN(c2nc(C)nc3sc4c(c23)CCCC4)CC1`, which Potency is on record?
A: The Potency was inconclusive: 8.91 µM [inhibitor, partial curve, poor fit].

Q: With `Cc1ccc(CNC(=O)c2cc3sccc3n2Cc2ccc(F)cc2)cc1` as the molecule, how does the Potency read?
A: Its Potency is “inactive”.

Q: Which Potency does the source give for `Cc1ccc(C(=O)OCC(=O)N2CCCc3ccccc32)cc1C` here?
A: The Potency was inconclusive: 11.2 µM [inhibitor, single point].

Q: With `C#CCOCCOCCOCCNc1nc(N2CCN(C(=O)Cn3cc(CCO)nn3)CC2)nc(N2CCN(C(=O)[C@H](CCCCN)n3cc(CC(C)O)nn3)CC2)n1` (stereo partly specified) as the molecule, how does the Potency read?
A: Its Potency is “inactive”.

Q: With `CC(C)CCNC(=O)C1(C)CCN1Cc1ccc(-c2ccccn2)cc1` (stereo unspecified) as the molecule, how does the Potency read?
A: The Potency was inconclusive: 10 µM [inhibitor, partial curve, poor fit].

Q: How did the Potency turn out when `CCOc1ccc(S(=O)(=O)NCC(=O)OCc2nnc(-c3ccccc3)o2)cc1` was run?
A: The Potency was “inactive”.

Q: Which Potency does the source give for `O=C1CSC(c2ccccc2F)N1c1cc(Cl)ccc1O` (stereo unspecified) here?
A: Its Potency is inconclusive: 14.1 µM [inhibitor, partial curve, poor fit].

Q: For `C/C(CC(=O)Nc1ccc2ccccc2c1)=N\NC(=O)c1cnccn1`, which Potency is on record?
A: The Potency was inconclusive: 0.794 µM [inhibitor, full curve, poor fit].

Q: For `CCCCNC(=S)N1CCN(CC)CC1`, which Potency is on record?
A: The Potency was “inactive”.

Q: Which Potency does the source give for `CC1CCC(NC(=O)c2ccc3c(c2)N(Cc2cccc(F)c2)C(=O)c2ccccc2S3)CC1` (stereo unspecified) here?
A: The Potency was inconclusive: 8.91 µM [inhibitor, partial curve, poor fit].

Q: How did the Potency turn out when `COc1ccc(-c2noc(C3CC(=O)N(c4ccc(C)c(F)c4)C3)n2)c(OC)c1` (stereo unspecified) was run?
A: The Potency was “inactive”.

Q: With `O=C(NC(=S)Nc1cc(Cl)ccc1N1CCOCC1)c1ccccc1[N+](=O)[O-]` as the molecule, how does the Potency read?
A: The Potency was inconclusive: 6.31 µM [inhibitor, partial curve, poor fit].

Q: For `Cc1ccc(C)c(N2CCN(c3ncccc3[N+](=O)[O-])CC2)c1`, which Potency is on record?
A: The Potency was inconclusive: 7.94 µM [inhibitor, partial curve, poor fit].

Q: `COc1ccc(C)cc1NC(=O)C(Sc1nnc(Nc2cc(C)ccc2OC)s1)c1ccccc1` (stereo unspecified) was tested. Which Potency did it give?
A: The Potency was inconclusive: 3.98 µM [inhibitor, partial curve, poor fit].

Q: For `O=C(NCc1cccc(Cl)c1)c1cccc(S(=O)(=O)N2CCCCC2)c1`, which Potency is on record?
A: The Potency was inconclusive: 11.2 µM [inhibitor, partial curve, poor fit].

Q: For `c1ccc(CNc2nc(NCc3ccccc3)c3ccccc3n2)cc1`, which Potency is on record?
A: Its Potency is inconclusive: 10 µM [inhibitor, partial curve, poor fit].

Q: For `CCOC(=O)c1c(N)sc(C(=O)Nc2ccc3c(c2)OCO3)c1C`, which Potency is on record?
A: Its Potency is active: 5.62 µM.

Q: With `Cc1cccc(NC(=O)C2CCN(C(=O)[C@@H]3Cc4ccccc4CN3)CC2)c1` as the molecule, how does the Potency read?
A: Its Potency is inconclusive: 12.6 µM [inhibitor, single point].

Q: Which Potency does the source give for `N/C(Cc1ccc(Cl)cc1)=N\OC(=O)c1ccc2ccccc2c1` here?
A: Its Potency is active: 7.94 µM.

Q: For `CCOC(=O)c1cc(NC(=O)c2ccccc2)c(=O)oc1C(F)(F)F`, which Potency is on record?
A: Its Potency is inconclusive: 4.47 µM [inhibitor, partial curve].

Q: How did the Potency turn out when `C/C(=N\OCC(=O)Nc1ccccc1C(=O)O)c1cccs1` was run?
A: The Potency was “inactive”.

Q: Which Potency does the source give for `Cc1ccc2c(c1)c(C)c(C)n2CC(O)CN1CCCCC1C` (stereo unspecified) here?
A: Its Potency is inconclusive: 28.2 µM [inhibitor, single point].

Q: `COc1ccc(C(=O)c2[nH]c(N)c(C(=O)NCCc3c[nH]c4ccccc34)c2-c2ccc(C(F)(F)F)cc2)cc1` was tested. Which Potency did it give?
A: The Potency was inconclusive: 2.82 µM [inhibitor, full curve, poor fit].

Q: How did the Potency turn out when `COc1ccc(NC(=O)Nc2ccc(OCc3ccccc3)cc2)cn1` was run?
A: The Potency was inconclusive: 2.24 µM [inhibitor, full curve].

Q: With `CCc1ccc(OCc2ccc(C(=O)OC)o2)cc1` as the molecule, how does the Potency read?
A: The Potency was inconclusive: 11.2 µM [inhibitor, single point].

Q: With `CC(C)CC(=O)OC1C(N2CCOCC2)c2c(ccc(/C=C/C(=O)N3CCOCC3)c2O)OC1(C)C` (stereo unspecified) as the molecule, how does the Potency read?
A: Its Potency is inconclusive: 7.94 µM [inhibitor, partial curve, poor fit].

Q: How did the Potency turn out when `Cc1cc(NC(=O)c2ccc(C(C)(C)C)cc2)no1` was run?
A: Its Potency is inconclusive: 22.4 µM [inhibitor, single point].

Q: How did the Potency turn out when `O=C(O)c1cccc(S(=O)(=O)N(Cc2ccccc2)c2cccc(C(F)(F)F)c2)c1` was run?
A: The Potency was inconclusive: 10 µM [inhibitor, single point].

Q: With `COc1ccc(C(=O)Nc2cccc(/C=C/c3nc4ccccc4c(=O)[nH]3)c2)cc1` as the molecule, how does the Potency read?
A: The Potency was inconclusive: 2 µM [inhibitor, full curve].

Q: Which Potency does the source give for `CCc1ccc(NS(=O)(=O)c2ccc3[nH]cc(C(=O)NC4CCCC4)c(=O)c3c2)cc1` here?
A: Its Potency is inconclusive: 11.2 µM [inhibitor, partial curve, poor fit].

Q: `Cc1ccc([N+](=O)[O-])cc1NC(=O)c1ccc(C(C)(C)C)cc1` was tested. Which Potency did it give?
A: The Potency was inconclusive: 10 µM [inhibitor, single point].

Q: With `COc1ccc(-n2cc(-c3ccccc3)c3c(SC(C)C(C)=O)ncnc32)cc1` (stereo unspecified) as the molecule, how does the Potency read?
A: The Potency was inconclusive: 28.2 µM [inhibitor, single point].

Q: How did the Potency turn out when `O=C(CNC(=S)N(CCCN1CCOCC1)Cc1cccs1)NCCCN1CCOCC1` was run?
A: Its Potency is “inactive”.

Q: With `CC(C)CCNC(=O)CN1C(=O)COc2ccc(S(=O)(=O)N3CCOCC3)cc21` as the molecule, how does the Potency read?
A: The Potency was “inactive”.

Q: For `O=C(CSCCO)Nc1cccc([N+](=O)[O-])c1`, which Potency is on record?
A: Its Potency is “inactive”.

Q: How did the Potency turn out when `COc1ccc([C@H]2/C=C\CN(S(=O)(=O)c3ccc4ccccc4c3)[C@@H](C)C(=O)N2Cc2ccc(F)cc2)cc1` was run?
A: Its Potency is inconclusive: 28.2 µM [inhibitor, single point].

Q: With `CC(C)c1ccc(NC(=O)C2CCCN(S(=O)(=O)c3ccc(Br)s3)C2)cc1` (stereo unspecified) as the molecule, how does the Potency read?
A: The Potency was inconclusive: 3.16 µM [inhibitor, partial curve].

Q: `COc1cccc(C(=O)Nc2ccccc2C(=O)OCc2cc(=O)n3nc(C)sc3n2)c1` was tested. Which Potency did it give?
A: The Potency was “inactive”.

Q: Which Potency does the source give for `CN1/C(=C\C(=O)c2ccco2)C(C)(C)c2ccccc21` here?
A: Its Potency is inconclusive: 14.1 µM [inhibitor, single point].

Q: With `COc1ccc(C2C(C(=O)Nc3ccccc3)=C(C)Nc3nc(-c4ccccc4)nn32)cc1OC` (stereo unspecified) as the molecule, how does the Potency read?
A: Its Potency is inconclusive: 28.2 µM [inhibitor, single point].

Q: With `O=C(CSc1nnc(-c2n[nH]c3ccccc23)n1-c1ccccc1)Nc1ccccc1Cl` as the molecule, how does the Potency read?
A: The Potency was inconclusive: 8.91 µM [inhibitor, partial curve, poor fit].

Q: For `CCc1ccccc1NC(=O)CSC1=C(C#N)C(c2ccc(O)c(OC)c2)C2=C(CCCC2=O)N1` (stereo unspecified), which Potency is on record?
A: Its Potency is inconclusive: 28.2 µM [inhibitor, single point].

Q: Which Potency does the source give for `CC(=O)N1c2ccccc2C(C)CC12CCCCC2` (stereo unspecified) here?
A: The Potency was inconclusive: 15.8 µM [inhibitor, partial curve, poor fit].

Q: `CCN(CCCNC(=O)CNC(=O)c1nn(-c2ccc(OC)cc2)c(=O)c2ccccc12)c1cccc(C)c1` was tested. Which Potency did it give?
A: Its Potency is inconclusive: 12.6 µM [inhibitor, partial curve, poor fit].

Q: How did the Potency turn out when `O=C(c1ccc(COc2ccccc2Cl)o1)N1CCN(Cc2ccc3c(c2)OCO3)CC1` was run?
A: Its Potency is inconclusive: 31.6 µM [inhibitor, partial curve, poor fit] and inconclusive: 28.2 µM [inhibitor, single point].

Q: For `O=C1CCSC2(C(=O)N(Cc3ccc(F)cc3)c3ccccc32)N1c1ccccc1` (stereo unspecified), which Potency is on record?
A: Its Potency is inconclusive: 25.1 µM [inhibitor, single point].

Q: Which Potency does the source give for `COC(=O)c1cc(NC(=O)c2cc(C(C)(C)C)nn2Cc2cccc(C)c2)ccc1N1CCOCC1` here?
A: Its Potency is inconclusive: 11.2 µM [inhibitor, partial curve, poor fit].

Q: `Cc1cc(C)n(-c2nnc(C)n2/N=C/c2cc(Br)ccc2OCc2ccccc2)n1` was tested. Which Potency did it give?
A: Its Potency is inconclusive: 11.2 µM [inhibitor, single point].

Q: For `CCc1ccc(NC(=O)c2cc3ccccn3n2)cc1`, which Potency is on record?
A: The Potency was inconclusive: 14.1 µM [inhibitor, single point].

Q: With `Fc1ccccc1CNCCCSc1nnnn1-c1ccccc1` as the molecule, how does the Potency read?
A: Its Potency is inconclusive: 28.2 µM [inhibitor, single point].

Q: For `COc1ccc(NS(=O)(=O)c2ccc3nc(COc4ccc5ccccc5c4)[nH]c3c2)cc1`, which Potency is on record?
A: The Potency was inconclusive: 8.91 µM [inhibitor, partial curve].

Q: For `CCCc1ccc2oc(C(=O)N(C)CCn3ccnc3C)c(C)c2c1`, which Potency is on record?
A: The Potency was inconclusive: 10 µM [inhibitor, single point].

Q: `Cc1ccc(C)c(NC(=S)N(Cc2ccc(Cl)cc2)Cc2ccc(C(=O)O)cc2)c1` was tested. Which Potency did it give?
A: The Potency was inconclusive: 12.6 µM [inhibitor, partial curve, poor fit].

Q: Which Potency does the source give for `O=S(=O)(NCC1CCCO1)c1cc(Br)c(Br)s1` (stereo unspecified) here?
A: Its Potency is inconclusive: 28.2 µM [inhibitor, single point].

Q: For `O=C(CSc1nnc(C2CCCCC2)n1-c1ccccc1)NCc1ccco1`, which Potency is on record?
A: The Potency was inconclusive: 5.62 µM [inhibitor, partial curve].

Q: For `O=S(=O)(Cc1ccccc1)NCC1CCCN(Cc2ccc(F)c(F)c2)C1` (stereo unspecified), which Potency is on record?
A: Its Potency is inconclusive: 22.4 µM [inhibitor, partial curve, poor fit].

Q: How did the Potency turn out when `C#CCN1Cc2ccccc2Oc2cc(Br)ccc2S1(=O)=O` was run?
A: Its Potency is inconclusive: 28.2 µM [inhibitor, single point].

Q: For `CCOCCCNCc1ccc(OCc2ccccc2Cl)cc1`, which Potency is on record?
A: The Potency was inconclusive: 14.1 µM [inhibitor, partial curve, poor fit].

Q: How did the Potency turn out when `COc1ccc(NC(=O)c2oc3c(c2C)-c2nn(Cc4c(F)cccc4Cl)cc2CC3)c(OC)c1` was run?
A: Its Potency is “inactive”.

Q: How did the Potency turn out when `Cc1ccc(CN2CCN(C/C(Cl)=C/c3ccccc3)CC2CCO)o1` (stereo unspecified) was run?
A: Its Potency is inconclusive: 11.2 µM [inhibitor, partial curve, poor fit].

Q: With `CCOC(=O)N1CCC(N2CCCC(C(=O)c3cc(C)c(OC)c(C)c3)C2)CC1` (stereo unspecified) as the molecule, how does the Potency read?
A: The Potency was inconclusive: 12.6 µM [inhibitor, single point].
